Source: PubChem BioAssay AID1745845 (National Center for Advancing Translational Sciences (NCATS), 2022)
Values joined by “and” are separate entries in the source; they are usually repeats but may differ in a detail not shown here. Identical values can stand only once. The whole screen tested about 360,000 compounds, of which about 2,600 (0.72%) were called active. This list was built around the results that the source calls inconclusive (neither active nor inactive); the mix of calls is not that of the screen. Calls come from the whole dose curve; as a rule, active = well fitted inhibition curve with a large enough effect; inconclusive = small, poorly fitted or top-dose-only effect; inactive = no such curve, though single readings can be large or run the other way. Potencies beside an inconclusive call are fits to weak or partial responses and may not hold up. A structure can be active in one record and inactive in another.

Assay: Primary qHTS for Inhibitors of ATXN expression; note: nearly all actives have a fitted effect of over 55% in size
Settings: HEK-293 ATXN2-luciferase reporter, luminescence, 24 h; series mostly up to 57 µM
Outline: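 ATXN2-luciferase reporter cells (luciferase flanked by upstream and downstream ATXN2 gene portions) were treated 24 h at 37 °C with compounds at up to 57 uM. SteadyGlo luminescence gave expression; GF-AFC fluorescence gave viability.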
Potency is the fitted concentration of half-maximal effect; tags give direction and shape of the fitted curve.

Structure (SMILES)	Potency
COc1ccc(N2CC(C(=O)N/N=C/c3ccc(C)cc3)CC2=O)cc1 (stereo not given)	inconclusive: 14.1 µM [inhibitor, partial curve, poor fit]
COc1ccc2[nH]c3c(N4CCC(O)(c5cccc(C(F)(F)F)c5)CC4)ncnc3c2c1	active: 28.2 µM
CC(C)(C)N1C(=O)[C@H]2[C@@H](c3ccc(Br)cc3)N3C(=O)N(c4cccc(Cl)c4)C(=O)[C@@]3(Cc3ccccc3)[C@H]2C1=O	inactive
Cc1cc(C)cc(OCC(O)CN2CCC(CN3C(=O)c4cccc5cccc(c45)C3=O)CC2)c1 (stereo not given)	active: 20 µM
CCOC(=O)c1sc2nc(CSc3nc4ccccc4n3CC)[nH]c(=O)c2c1C	inconclusive: 20 µM [inhibitor, partial curve, poor fit]
CN(C(=O)COC(=O)c1nc(Cl)c(Cl)c(Cl)c1Cl)C1CCS(=O)(=O)C1 (stereo not given)	inconclusive: 37.7 µM [inhibitor, single point]
CCN1CCN(Cc2ccc(NC(=O)c3cc(NC(=O)c4nccnc4N)cc(OC)c3)cc2C(F)(F)F)CC1	inconclusive: 39.8 µM [inhibitor, single point]
COc1ccc(CCNCc2c(C(=O)O)c(C)n(Cc3c(F)cccc3Cl)c2C)cc1OC	inactive
C/C(=N\NC(=O)c1ccc(Cl)cc1)c1cccs1	inconclusive: 37.7 µM [inhibitor, single point]
O=[N+]([O-])c1ccc(/C=N/n2c(CO)nc3ccccc32)s1	inconclusive: 6.31 µM [inhibitor, partial curve]
Cc1ccc(C(=O)N[C@H](C(=O)N2CCN(c3ccccc3F)CC2)C(C)C)cc1	inactive
O=C(Nc1nc2ccccc2[nH]1)c1ccc(Cl)cc1	inconclusive: 22.4 µM [inhibitor, single point]
NC(c1csc(Nc2cc(Oc3ccccc3)ncn2)n1)c1ccccc1Cl (stereo not given)	inconclusive: 39.8 µM [inhibitor, single point]
O=C1N[C@@H](Cc2ccccc2)COC(=O)[C@H](Cc2ccc(F)cc2)CC/C=C/C[C@@H]1CC(=O)N(CCO)Cc1ccccc1	inconclusive: 39.8 µM [inhibitor, single point]
CCCCC1C(=O)CC[C@H]2[C@@H]1CC(=O)[C@@H]2C/C=C\CCCC(=O)O (stereo not given in full)	inconclusive: 39.8 µM [inhibitor, single point]
Cc1cc(C)cc(NC(=O)c2cc(S(=O)(=O)NCCC3=CCCCC3)ccc2F)c1	inconclusive: 22.4 µM [inhibitor, partial curve, poor fit]
CCCCC[C@H](C)N1C[C@H](COCc2ccccc2)Oc2cc(N3CCC[C@H]3CO)ccc2S1(=O)=O	inconclusive: 39.8 µM [inhibitor, single point]
Cc1cc(C)c(S(=O)(=O)Nc2cc(SCC(=O)O)c(O)c3ccccc23)cc1C	inconclusive: 28.2 µM [inhibitor, partial curve, poor fit]
Cc1nnc(NC(=O)CSc2nc3c([nH]c4ccccc43)c(=O)n2-c2ccc(Cl)cc2)s1	inactive
NNc1nc(-c2ccccc2)cc(-c2ccccc2)n1	inconclusive: 26.7 µM [inhibitor, partial curve, poor fit]
O=S(=O)(Nc1ccc2nc(-c3ccc(F)cc3)oc2c1)c1ccccc1	inconclusive: 39.8 µM [inhibitor, single point]
Cc1ccc(S(=O)(=O)NCC(=O)N/N=C/c2ccccc2O)cc1	active: 14.1 µM

Structure (SMILES)	Potency
COc1ccc(C(=O)Nc2ccccc2N2CCN(C(=O)C(C)C)CC2)cc1Cl	inactive
COc1cc(C(=O)NC(=S)Nc2ccc(N3CCCC3)cc2)cc(OC)c1OC	inactive
CC(C)C(=O)Nc1cccc(-c2nc3ncccc3o2)c1	inactive
Cc1nn(Cc2ccc(C(=O)NC(C)(C)C)o2)c(C)c1Br	inactive
CCNCc1cc(Cl)c(OCc2ccccc2)c(OCC)c1	inconclusive: 22.4 µM [inhibitor, single point]
C/C(=N\NC(=O)c1ccccc1)c1c(C)[nH]n(-c2ccccc2)c1=O	inconclusive: 10 µM [inhibitor, partial curve]
COc1ccc(C(C)=O)cc1COC(=O)c1c(C)noc1C	inactive
Cc1ccc(Cl)cc1N1CCN(S(=O)(=O)c2c(C)noc2C)CC1	inactive
Cc1cccc2sc(N(CCN3CCOCC3)C(=O)CCS(=O)(=O)c3ccccc3)nc12	inconclusive: 39.8 µM [inhibitor, single point]
O=C1C=CC(=O)c2c(O)c(N3CCN(CCO)CC3)c(Cl)c(O)c21	active: 5.62 µM
NC(Cc1ccc(C(F)(F)F)cc1)c1csc(Nc2ccc(C(=O)NCCCO)cn2)n1 (stereo not given)	inconclusive: 39.8 µM [inhibitor, single point]
Cc1ccc(Cc2c(-c3ccco3)nc3ccc(Cl)cn23)cc1	inconclusive: 25.1 µM [inhibitor, single point]
COc1ccccc1N1CCN(C(=O)/C=C/c2c(Cl)nc3ccccn23)CC1	inconclusive: 39.8 µM [inhibitor, single point]
COc1ccccc1C(=O)N1CCN(CCNC(=O)C(=O)Nc2ccc(Br)c(C)c2)CC1	inconclusive: 12.6 µM [inhibitor, partial curve, poor fit]
CCCN(CC(=O)Nc1cc(Cl)cc(Cl)c1)CC(=O)Nc1ccc(F)c(F)c1F	inconclusive: 35.5 µM [inhibitor, single point]
CCCCN1C2CCCC1CC(NC(=O)c1cccc(OC)c1)C2 (stereo not given)	inactive
Cc1ccc(S(=O)(=O)c2cnc(SC(C)C(=O)Nc3ccccc3)[nH]c2=O)cc1 (stereo not given)	inactive
Cc1nc2ccccc2nc1N/N=C/c1ccc(O)cc1O	inconclusive: 15.8 µM [inhibitor, partial curve, poor fit]
CCOC(=O)c1ccc(NC(=O)Nc2ccc3c4c(cccc24)C(=O)N3CC)cc1	inconclusive: 39.8 µM [inhibitor, single point]
Cc1cccc(OCc2n(CC(=O)OC3CC(C)CCC3C(C)C)c3ccccc3[n+]2C)c1 (stereo not given)	inconclusive: 35.5 µM [inhibitor, single point]
O=C1OCCC1Sc1nnc(-c2ccc(Cl)cc2Cl)o1 (stereo not given)	active: 6.31 µM
O=C1C=CC2(O[C@H](c3ccccc3)[C@@H](c3ccccc3)O2)[C@H](Sc2ccccc2O)C1	active: 3.98 µM

Structure (SMILES)	Potency
COc1ccc(N2CCN(C(=O)c3sc4ncn(CC(=O)N5CCCCC5C)c(=O)c4c3C)CC2)cc1 (stereo not given)	inactive
COC(=O)[C@]1(C)CCC[C@@]2(C)C3CC[C@@]4(C)C[C@]3(CCC21)CC(=O)N4Cc1ccc(OC)cc1 (stereo not given in full)	inconclusive: 28.2 µM [inhibitor, single point]
COc1cc(C2=NOC(C(=O)NCc3cccs3)C2)cc(OC)c1OC (stereo not given)	inactive
CCOC(=O)c1cnc2ccc(OC)cc2c1NCCc1ccc(OC)c(OC)c1	active: 28.2 µM
Cc1cc(C)nc(-n2nc(C)cc2NC(=O)CN2CCc3ccccc3C2)n1	inconclusive: 39.8 µM [inhibitor, single point]
O=C(CN(c1ccc(Cl)c(C(F)(F)F)c1)S(=O)(=O)c1ccccc1)N/N=C/c1cccc2c1OCCO2	inconclusive: 35.5 µM [inhibitor, single point]
CCOc1cccc(CN2CCN(c3cccc(C(F)(F)F)c3)CC2)c1O	inactive
CCOC(=O)c1cccc(NC(=O)c2cc3cc4ccc(C)cc4nc3o2)c1	inactive
Cn1nccc1C(=O)Nc1ccc(Cl)cc1	inactive
COC(=O)C(CC(C)C)N(Cc1cc(OC)cc(OC)c1)S(=O)(=O)c1ccccc1Br (stereo not given)	inactive
CCCCCCC[N+](CC)(CC)CCCCc1ccc(Cl)cc1	active: 22.4 µM and inconclusive: 8.91 µM [inhibitor, full curve]
COc1cccc(-c2ccc(SCC(=O)N3CCN(c4ccccc4)CC3)nn2)c1	inconclusive: 26.7 µM [inhibitor, partial curve, poor fit]
O=C(CCS(=O)(=O)c1ccccc1)Nc1nc2c(s1)COc1ccccc1-2	inconclusive: 37.7 µM [inhibitor, single point]
CCN(CC)c1ccc2oc(=O)c(C)nc2c1	inconclusive: 31.6 µM [inhibitor, single point]
CC(C)(C)NC(=O)C[C@H]1C[C@H](C(=O)N2CCCCC2)[C@@]2(C)c3[nH]c4cc(-c5ccco5)ccc4c3CCN2C1=O	inconclusive: 39.8 µM [inhibitor, single point]
COC(=O)c1c(C)[nH]c(C(=O)OCC(=O)c2c(N)n(CC(C)C)c(=O)n(C)c2=O)c1C	inconclusive: 25.1 µM [inhibitor, single point]
c1ccc(CN(Cc2ccccc2)c2c3c(nc4ncnn24)CCC3)cc1	inconclusive: 0.006 µM [inhibitor, full curve, poor fit]
Cc1ccc(-n2nc(C)c(C(=O)NCCCN3CCN(c4ccc(F)cc4)CC3)c2-n2cccc2)cc1	inconclusive: 20 µM [inhibitor, partial curve, poor fit]
Cc1ccc(NC(=O)CNC(=O)c2cccs2)cc1S(=O)(=O)Nc1ccc(Cl)cc1	inconclusive: 37.7 µM [inhibitor, single point]
CCOC(=O)c1oc2cccc(OCC(O)CNC(C)C)c2c1C (stereo not given)	inconclusive: 12.6 µM [inhibitor, partial curve, poor fit]
Cc1cc(C)cc(OC(C)C(=O)Nc2nonc2-c2ccc(Br)cc2)c1 (stereo not given)	inconclusive: 39.8 µM [inhibitor, single point]
